# Reference: the supplement of paper PMC8728848
# Some of the results follow.
# Tests used:
# Test in all cases: glycan array binding signal (z-score within array); higher = stronger binding
# Conditions in all cases: glycan notation: IUPAC condensed, linker removed; mutation: H59Q
# [1] = biological target: Gal(b1-4)GalNAc(b1-3)[Fuc(a1-2)]Gal(b1-4)GlcNAc
# In short: (§1)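 Glycan array data came from 3228 arrays in the Consortium for Functional Glycomics database, and only arrays with an available protein sequence were kept. Glycan names were put into IUPAC-condensed notation, and columns mapping to the same glycan were averaged. The binding signal is a within-array Z-score, averaged across arrays of one protein sequence run at different concentrations or buffers and across linkers. A negative Z-score can be read as non-binding.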
# [2] = biological target: Gal(b1-4)Glc
# In short: as §1
# [3] = biological target: Gal(b1-4)Glc6S
# In short: as §1
# [4] = biological target: Gal(b1-4)GlcNAc
# In short: as §1
# [5] = biological target: Gal(b1-4)GlcNAc(a1-6)Gal(b1-4)GlcNAc
# In short: as §1
# [6] = biological target: Gal(b1-4)GlcNAc(b1-2)Man
# In short: as §1
# [7] = biological target: Gal(b1-4)GlcNAc(b1-2)Man(a1-3)Man(b1-4)GlcNAc(b1-4)GlcNAc
# In short: as §1
# [8] = biological target: Gal(b1-4)GlcNAc(b1-2)Man(a1-3)[Gal(b1-4)GlcNAc(b1-2)Man(a1-6)]Man(b1-4)GlcNAc(b1-4)GlcNAc
# In short: as §1
# [9] = biological target: Gal(b1-4)GlcNAc(b1-2)Man(a1-3)[Gal(b1-4)GlcNAc(b1-2)Man(a1-6)]Man(b1-4)GlcNAc(b1-4)[Fuc(a1-6)]GlcNAc
# In short: as §1
# [10] = biological target: Gal(b1-4)GlcNAc(b1-2)Man(a1-3)[Gal(b1-4)GlcNAc(b1-2)Man(a1-6)][Gal(b1-4)GlcNAc(b1-4)]Man(b1-4)GlcNAc(b1-4)[Fuc(a1-6)]GlcNAc
# In short: as §1
# [11] = biological target: Gal(b1-4)GlcNAc(b1-2)Man(a1-3)[Gal(b1-4)GlcNAc(b1-2)Man(a1-6)][GlcNAc(b1-4)]Man(b1-4)GlcNAc(b1-4)[Fuc(a1-6)]GlcNAc
# In short: as §1
# [12] = biological target: Gal(b1-4)GlcNAc(b1-2)Man(a1-3)[GlcNAc(b1-2)Man(a1-6)]Man(b1-4)GlcNAc(b1-4)GlcNAc
# In short: as §1
# [13] = biological target: Gal(b1-4)GlcNAc(b1-2)Man(a1-3)[GlcNAc(b1-4)][Gal(b1-4)GlcNAc(b1-2)Man(a1-6)]Man(b1-4)GlcNAc(b1-4)GlcNAc
# In short: as §1
# [14] = biological target: Gal(b1-4)GlcNAc(b1-2)Man(a1-3)[Man(a1-6)]Man(b1-4)GlcNAc(b1-4)GlcNAc
# In short: as §1
# [15] = biological target: Gal(b1-4)GlcNAc(b1-2)Man(a1-6)Man(b1-4)GlcNAc(b1-4)GlcNAc
# In short: as §1
# [16] = biological target: Gal(b1-4)GlcNAc(b1-2)Man(a1-6)[GlcNAc(b1-2)Man(a1-3)]Man(b1-4)GlcNAc(b1-4)GlcNAc
# In short: as §1
# [17] = biological target: Gal(b1-4)GlcNAc(b1-2)Man(a1-6)[Man(a1-3)]Man(b1-4)GlcNAc(b1-4)GlcNAc
# In short: as §1
# [18] = biological target: Gal(b1-4)GlcNAc(b1-2)[Gal(b1-4)GlcNAc(b1-4)]Man(a1-3)[Gal(b1-4)GlcNAc(b1-2)Man(a1-6)]Man(b1-4)GlcNAc(b1-4)GlcNAc
# In short: as §1
# [19] = biological target: Gal(b1-4)GlcNAc(b1-2)[Gal(b1-4)GlcNAc(b1-4)]Man(a1-3)[Gal(b1-4)GlcNAc(b1-2)[Gal(b1-4)GlcNAc(b1-6)]Man(a1-6)]Man(b1-4)GlcNAc(b1-4)GlcNAc
# In short: as §1
# [20] = biological target: Gal(b1-4)GlcNAc(b1-2)[Gal(b1-4)GlcNAc(b1-4)]Man(a1-3)[GlcNAc(b1-4)][Gal(b1-4)GlcNAc(b1-2)Man(a1-6)]Man(b1-4)GlcNAc(b1-4)GlcNAc
# In short: as §1
# [21] = biological target: Gal(b1-4)GlcNAc(b1-2)[Gal(b1-4)GlcNAc(b1-4)]Man(a1-3)[GlcNAc(b1-4)][Gal(b1-4)GlcNAc(b1-2)[Gal(b1-4)GlcNAc(b1-6)]Man(a1-6)]Man(b1-4)GlcNAc(b1-4)GlcNAc
# In short: as §1
# [22] = biological target: Gal(b1-4)GlcNAc(b1-2)[Gal(b1-4)GlcNAc(b1-6)]Man(a1-6)[Gal(b1-4)GlcNAc(b1-2)Man(a1-3)]Man(b1-4)GlcNAc(b1-4)GlcNAc
# In short: as §1
binder,measurement,setting,value
"rAAL-H59Q (Agrocybe aegerita), Q6WY08 (protein) MQGVNIYNISAGTSVDLAAPVTTGDIVTFFSSALNLNAGAGNPNNTTLNLFAENGAYLLQIAFRLQENVIIFNSRQPDGPWLVEQRVSDVANQFAGIDGKAMVTVFDHGDKYQVVINEKTVIQYTKQISGLTLSLSYNATEETSIFSTVVEAVTYTGLALEHHHHHH",glycan array binding signal (z-score),[1],-0.053
same,glycan array binding signal (z-score),[2],-0.097
same,glycan array binding signal (z-score),[3],0.021
same,glycan array binding signal (z-score),[4],-0.07
same,glycan array binding signal (z-score),[5],-0.046
same,glycan array binding signal (z-score),[6],0.03
same,glycan array binding signal (z-score),[7],-0.101
same,glycan array binding signal (z-score),[8],-0.098
same,glycan array binding signal (z-score),[9],-0.009
same,glycan array binding signal (z-score),[10],-0.084
same,glycan array binding signal (z-score),[11],-0.116
same,glycan array binding signal (z-score),[12],-0.101
same,glycan array binding signal (z-score),[13],-0.06
same,glycan array binding signal (z-score),[14],-0.059
same,glycan array binding signal (z-score),[15],-0.034
same,glycan array binding signal (z-score),[16],-0.072
same,glycan array binding signal (z-score),[17],0.003
same,glycan array binding signal (z-score),[18],-0.107
same,glycan array binding signal (z-score),[19],-0.012
same,glycan array binding signal (z-score),[20],-0.111
same,glycan array binding signal (z-score),[21],-0.098
same,glycan array binding signal (z-score),[22],-0.032
